Test results: paper PMC12040169 (PLOS Biology, 2025)
Some of the results follow.

system: T1, C. trachomatis L2/434/Bu expressing GFP (CTL2-GFP); design: species or system HeLa; C. trachomatis total inclusion area by high-content imaging, normalised to DMSO; details: total inclusion area; 28.5 h, 10 µM; inhibitor
T1 construct: L2/434/Bu GFP intracellular growth in HeLa cells
In short: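 High-content imaging followed the bulk GFP/resorufin measurement: fixed, Hoechst-stained cells were scored for GFP inclusions and host nuclei per well. Total inclusion area and count served as growth proxies, nuclei number as the viability proxy. MIC calculation matched the bulk assay.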

Structure (SMILES)	% of control remaining
COc1cc(Nc2nc(-c3cccc(OC(F)(F)F)c3)cn3ccnc23)cc(OC)c1OC [CBK038036]	72.8405
O=C(O)CCC(=O)N1N=C(c2c(-c3ccccc3)c3cc(Br)ccc3[nH]c2=O)CC1c1ccc([N+](=O)[O-])cc1 (stereo not shown) [CBK267543]	114.847
O=[N+]([O-])c1ccc(NCCNC(=S)Nc2ccc(Cl)cc2)nc1 [CBK263594]	82.2521
O=C(O)c1ccc(OCc2n[nH]c(=S)n2-c2ccc(Cl)cc2)cc1 [CBK014317]	92.9326
CCOc1ccc(NC(=O)c2ccc(CN3CCOCC3)cc2)cc1 [CBK033557]	84.8414
CCCc1cc(C(=O)OC)c(NC(=O)CC2Nc3ccccc3NC2=O)s1 (stereo not shown) [CBK269451]	80.674
Cc1ccc(OCCCCNCCN)c(Br)c1 [CBK265099G]	102.154
Cc1ccc(OCC(=O)N2CCCCC2c2nccs2)cc1 (stereo not shown) [CBK305091]	98.4007
CCC(NC(=O)Nc1cc(N2CCOCC2)ccc1Cl)c1cnn(C)c1 (stereo not shown) [CBK306844]	77.8274
CC1CC1C(=O)NCCN1CCC(O)(c2ccc(F)cc2)CC1 (stereo not shown) [CBK283168]	87.8623
CCn1ncc(CN2C3CCC2CC(O)(c2ccc(F)cc2)C3)c1C (stereo not shown) [CBK282973]	100.127
CC1(C)CC(=O)c2cnc3cc(-c4ccco4)nn3c2C1 [CBK283142]	95.4614
Cc1nn(C(C)C)c(C)c1CN(CCCN(C)C)Cc1ccco1 [CBK282978]	118.302
COc1ccc(S(=O)(=O)N(C)CC(=O)Nc2ccc(C(N)=O)cc2)cc1C [CBK267278]	92.6978
Cn1ncnc1CCNS(=O)(=O)c1cccc(C(=O)N2CCCCC2)c1 [CBK306731]	47.7866
O=c1[nH]c(=O)c2cc(S(=O)(=O)NCC3(N4CCOCC4)CCCCC3)ccc2[nH]1 [CBK286390]	89.2947
O=C(c1ccccc1F)N1CCCC(c2cc3ncccc3cn2)C1 (stereo not shown) [CBK284710]	107.602
CCOC(=O)NC(=S)NCCCn1ccnc1 [CBK018272]	52.9011
O=C(c1ccco1)N1CCN(c2cncc(-c3ccc(F)cc3F)n2)CC1 [CBK065818]	89.6434
Cc1ccc(C(=O)N2CCN(Cc3cc(=O)n4ccsc4n3)CC2)cc1 [CBK305057]	53.096
CCNC(=O)Nc1cc2ccccc2c(-c2cccnc2)n1 [CBK073787]	98.1361
CCCc1nc(C(=O)N2Cc3cnn(Cc4ccc(F)cc4)c3C2)cs1 [CBK307249]	88.9968
